Measurements published in PubChem BioAssay AID1745853 (National Center for Advancing Translational Sciences (NCATS), 2022).
Some of the results follow. Shown are side measurements of this screen, not its main read-out; they come without a call.

What was measured:
Experiment in all cases: Primary Screen for Target Class Profiling of Small Molecule Inhibitors of Methyltransferases
[1] = target: Glycine N-methyltransferase (Homo sapiens) (UniProt Q14749); conditions: purified enzyme, MTase-Glo SAH luminescence; measured here: GNMT inhibition; at 40 µM; stronger effect = lower value
In short: (§1)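 Each enzyme was reacted with SAM and its substrate, with compounds tested once at 40 uM; SAH formed was read by MTase-Glo luminescence.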

[2] = target: Guanidinoacetate N-methyltransferase (Homo sapiens) (UniProt Q14353); conditions: purified enzyme, MTase-Glo SAH luminescence; measured here: GAMT inhibition; at 40 µM; stronger effect = lower value
In short: as §1

[3] = target: Histamine N-methyltransferase (Homo sapiens) (UniProt P50135); conditions: purified enzyme, MTase-Glo SAH luminescence; measured here: HNMT inhibition; at 40 µM; stronger effect = lower value
In short: as §1

[4] = target: Nicotinamide N-methyltransferase (Homo sapiens) (UniProt P40261); conditions: purified enzyme, MTase-Glo SAH luminescence; measured here: NNMT inhibition; at 40 µM; stronger effect = lower value
In short: as §1

[5] = target: Phenylethanolamine N-methyltransferase (Homo sapiens) (UniProt P11086); conditions: purified enzyme, MTase-Glo SAH luminescence; measured here: PNMT inhibition; at 40 µM; stronger effect = lower value
In short: as §1
On the % scale 0 is the no-effect control and ±100 the full control effect.

Row | Structure (SMILES) | activity change, negative = inhibition [1] [%] | activity change, negative = inhibition [2] [%] | activity change, negative = inhibition [3] [%] | activity change, negative = inhibition [4] [%] | activity change, negative = inhibition [5] [%]
1 | CCc1ccccc1NC(=O)Cn1nc2n(C(C)C)c(=O)c3ccc(C(=O)NC4CCCC4)cc3n2c1=O | 0.895 | 2.28 | -4.32 | -0.712 | -5.61
2 | COC(=O)C(C)(N)Cc1ccc(O)cc1 (stereo not given) | -0.261 | 4.6 | 2.1 | -3.23 | 6.72
3 | Cc1ccc(NC(=O)Cn2nc3n(C)c(=O)c4ccc(C(=O)NCC(C)C)cc4n3c2=O)cc1 | 5.81 | 4.69 | 9.95 | 3.17 | 6.64
4 | Cc1sc2ncn(CC(=O)NCc3cccs3)c(=O)c2c1S(=O)(=O)N1CCC(C)CC1 | -10.1 | 3.22 | -3.09 | -3.06 | -10
5 | CCC(C)NC(=O)c1ccc2c(=O)n(Cc3ccccc3)c3nn(Cc4ccc(F)cc4)c(=O)n3c2c1 (stereo not given) | 8.28 | 0 | 3.5 | 7.72 | 6.65
6 | CC1OC(OC2C(OC3C(O[C@H]4CC[C@@]5(C)C(CC[C@]6(C)C5CC=C5C7CC(C)(C)CC(O)[C@]7(C)CC[C@]56C)C4(C)C)OC(C(=O)O)C(O)C3O)OCC(O)C2O)C(O)C(O)C1O (stereo not given in full) | 2.18 | 10.2 | 10.6 | -12.8 | 7.58
7 | COc1ccc(CNC(=O)Cn2c(=O)oc3cc(S(=O)(=O)N4CCC(C)CC4)ccc32)cc1 | -9.77 | 3.55 | -2.71 | -22.4 | -11.5
8 | Cc1ccc(NC(=O)Cn2nc3n(C)c(=O)c4ccc(C(=O)NC5CCCC5)cc4n3c2=O)c(C)c1 | 4.74 | 0 | 4.6 | 4.39 | 3.78
9 | CC(C)c1noc(-c2cn(C3CCN(C(=O)C4(c5ccccc5)CC4)CC3)nn2)n1 | -1.01 | 0.712 | 0.806 | 0.768 | -0.546
10 | COc1ccccc1NS(=O)(=O)c1ccc2c(c1)NC(=O)C(C)C(=O)N2 (stereo not given) | -6.11 | 0.914 | -6.13 | 0.958 | -6.58
11 | COc1cccc(CNC(=O)c2ccc3c(=O)nc4c(-c5cccc(F)c5)n[nH]n4c3c2)c1 | -7.52 | 0 | -1.09 | -2.12 | -3.09
12 | COc1cc(N2CCC(N)CC2)ccc1Nc1ncc(Cl)c(-c2c[nH]c3ccccc23)n1 | -25.4 | -5.79 | -74.5 | -42.2 | -21.7
13 | Cc1oc2ccccc2c1CNC(=O)NCc1cccs1 | -1.71 | -12.5 | -2.33 | -29.9 | -7.78
14 | CCOC(=O)Cc1c(-c2ccccc2)c2cc(Cl)ccc2[nH]c1=O | -2.03 | -0.143 | 0.969 | -15.5 | -1.28
15 | CC1=C2[C@@H]([C@H](C)CC[C@H]2/C=C(\C)C(=O)O)[C@H](O)C1 | -3.74 | -4.83 | -0.751 | -16.3 | 0.587
16 | O=S(=O)(NCc1cccc2ccccc12)c1cc(Cl)c(Oc2cccc(N3CCNCC3)c2)s1 | -0.706 | -13.1 | -4.08 | -18.8 | -5.05
17 | CC1=C2CC3C(CCC3(C)O)C(C)(O)CC2OC1=O (stereo not given) | -0.44 | -1.09 | 5.86 | -11.4 | -4.18
18 | Cc1ccc(-n2ccnc2-c2cc3n(n2)CCNC3)cc1N1CCCC1=O | -1.06 | 0.504 | -2.25 | -1.25 | 1.21
19 | O=c1c2ccccc2n2c(-c3ccccc3O)nnc2n1Cc1ccc(F)cc1 | -0.539 | 0 | 8.55 | 4.71 | 1.84
20 | O=c1[nH]c2cc(Br)c(S(=O)(=O)NCCN3CCN(c4ccccc4F)CC3)cc2[nH]1 | 0.561 | 0 | -1.95 | -5.87 | -3.45

Row | Structure (SMILES) | activity change, negative = inhibition [1] [%] | activity change, negative = inhibition [2] [%] | activity change, negative = inhibition [3] [%] | activity change, negative = inhibition [4] [%] | activity change, negative = inhibition [5] [%]
21 | Cc1ccccc1NC(=O)Cn1nc2n(C(C)C)c(=O)c3ccc(C(=O)NCC(C)C)cc3n2c1=O | 7.78 | 0.094 | 11.1 | 6.7 | 8.03
22 | Fc1ccc(-c2cc(C3CCNCC3)[nH]n2)cc1 | -9.61 | -8.29 | -8.99 | -12.5 | -15
23 | C[C@@H](NC(=O)c1cc(C(=O)N[C@@H](Cc2ccccc2)[C@H](O)CNC2CC2)cc(N(C)S(C)(=O)=O)c1)c1ccccc1 | -0.862 | -1.8 | -2.89 | -11.2 | -7.2
24 | CCCCN1C(=O)c2cc(C(=O)Nc3ccc(C)c(C)c3)nn2CC1(C)C(=O)NC1CCCC1 (stereo not given) | 3.15 | 0 | -24.7 | 1.86 | 2.63
25 | CC(C(=O)NCc1ccccc1Cl)n1ccc2cc(S(=O)(=O)N3CCCCC3)ccc21 (stereo not given) | -0.022 | 5.17 | 4.62 | -2.5 | 1.42
26 | CCc1cccc(NC(=O)c2cc3n(n2)CC(C)(C(=O)NC2CCCCCC2)N(C)C3=O)c1 (stereo not given) | 0.171 | 2.28 | -0.205 | -0.463 | -0.774
27 | Cc1nnc2n1CCC(N(C)S(=O)(=O)c1cccnc1)CC2 (stereo not given) | -0.098 | 0.301 | -0.06 | 3.25 | 6.03
28 | CC(C)CNC(=O)c1ccc2c(=O)n(CC(C)C)c3nn(CC(=O)Nc4ccccc4F)c(=O)n3c2c1 | -0.635 | 0 | 2.9 | -5.01 | -0.247
29 | Nc1[nH]nc2nnc(-c3c(-c4ccccc4)nn4ccccc34)cc12 | -92.1 | -84.2 | -92.3 | -89.3 | -91
30 | CC(C)c1cc(C(=O)NCc2cccnc2Oc2cccc(C(F)(F)F)c2)n[nH]1 | -5.23 | 1.88 | -4.24 | -3.4 | 3.44
31 | Nc1nc2c(c(=O)[nH]1)CCN(C(=O)Cc1c[nH]c3ccccc13)C2 | -4.89 | -6.36 | -1.81 | -9.49 | -5.7
32 | CCN1C(=O)c2cc(C(=O)NCCc3ccc(Cl)cc3)nn2CC1(C)C(=O)NC1CCCC1 (stereo not given) | -0.134 | 3 | 0.742 | -0.375 | -1.4
33 | COc1ccc(CN2C(=O)c3cc4occc4n3CC2(C)C(=O)NC2CCCCC2C)cc1 (stereo not given) | 1.99 | 0 | 5.82 | -7.9 | 0.22
34 | Cc1cc(C)cc(NS(=O)(=O)c2ccc3[nH]c(=O)[nH]c3c2)c1 | -4.84 | 0 | 4.12 | 4.47 | -12.5
35 | Cc1nc2c3ccccc3n3c(CCCC(=O)N4CCN(c5cccc(C)c5C)CC4)nnc3n2n1 | -9.33 | 4.99 | 4.96 | 8.04 | 2.23
36 | CC(C)n1cnnc1C1CCCN1C(=O)Nc1ccccc1 (stereo not given) | -5.04 | -10.7 | -4.63 | -9.17 | -5.9
37 | CCC1c2cccn2-c2sc3c(c2CN1C(=O)Nc1cc(OC)ccc1OC)CCCC3 (stereo not given) | -2.98 | 4.72 | 6.68 | -3.59 | 2.82
38 | CC1(C(=O)NC2CCCC2)Cn2c(nc3ccccc32)C(=O)N1Cc1cccc(Br)c1 (stereo not given) | -6.88 | -2.48 | -0.563 | -11.3 | -6.23
39 | CC1(C(=O)NC2CCCC2)Cn2c(ccc2-c2ccccc2)C(=O)N1Cc1cccs1 (stereo not given) | -0.74 | 5.94 | -5.62 | -8.43 | -5.36
40 | O=C(c1ccc2c(c1)OCCO2)N1CCCCC1 | -9.36 | 1.39 | -2.48 | -13 | 0.185

Row | Structure (SMILES) | activity change, negative = inhibition [1] [%] | activity change, negative = inhibition [2] [%] | activity change, negative = inhibition [3] [%] | activity change, negative = inhibition [4] [%] | activity change, negative = inhibition [5] [%]
41 | COc1ccccc1CNC(=O)C1(C)Cn2nc(-c3ccccc3)cc2C(=O)N1c1ccc(C)cc1Cl (stereo not given) | 3.37 | 3.5 | 9.34 | 1.07 | -0.052
42 | CN1C(=O)c2cc(C(=O)N3CCOCC3)nn2CC1(C)C(=O)NCc1ccccc1 (stereo not given) | 4.09 | 0 | 2.89 | 9.44 | 5.22
43 | Cn1nc(C2CC2)cc1NC(=O)C1CCCC1 | -0.061 | 0.807 | 0.412 | -2.03 | -4.17
44 | O=C1NC2(CCN([S+](=O)([O-])c3ccccc3)C2)Oc2ccccc21 (stereo not given) | -23.6 | -5.5 | -3.98 | -12.2 | -18.8
45 | CC(CCc1ccccc1)N1C(=O)c2ccccc2CC1(C)C(=O)NC1CCCCCCC1 (stereo not given) | -1.77 | 4.27 | 2.11 | 2.79 | -2.56
46 | CCn1c(C2CCCNC2)nn(Cc2csc(-c3ccccc3)n2)c1=O (stereo not given) | -3.28 | -8.51 | -5.69 | -12.1 | -8.4
47 | COCCCNc1nc2c(S(=O)(=O)c3ccc(C)c(C)c3)nnn2c2ccccc12 | -12.7 | 4.5 | 1.3 | 1.89 | -4.97
48 | CCCCNc1nc2c(-c3ccc(F)cc3)nnn2c2ccccc12 | 2.58 | 0.305 | 7.78 | 12.6 | 2.74
49 | Cn1c(=O)n(C)c2cc(S(=O)(=O)N(Cc3ccco3)C(=O)c3ccncc3)ccc21 | 3.73 | 0.031 | 7.55 | 8.44 | 3.06
50 | COC(=O)c1ncn2c1C(=O)N(CCCc1ccccc1)C(C)(C(=O)NC1CCCCC1)C2 (stereo not given) | 1.02 | 7.92 | -1.61 | 3.97 | 2.38
51 | CC(C)CCNC(=O)C1c2c(n(C)c3ccccc23)SCC(=O)N1Cc1ccccc1Cl (stereo not given) | 4 | -2.36 | 0.61 | -10.8 | -2.04
52 | COc1ccc(N2C(=O)c3cc(C(C)(C)C)nn3CC2(C)C(=O)NCc2ccccc2)cc1 (stereo not given) | 5.09 | 0.471 | 5.77 | 1.32 | 1.46
53 | CCCn1c(=O)c2ccc(C(=O)NC3CCCCC3)cc2n2c(=O)n(Cc3cccc(F)c3)nc12 | 5.34 | 0 | 10.3 | 7.87 | 7.13
54 | Cc1c(Cl)cccc1N1C(=O)c2cc(C(C)(C)C)nn2CC1(C)C(=O)NC1CCCCC1 (stereo not given) | -10.2 | -0.516 | -8.33 | -3.85 | -5.04
55 | CCOCCCNC(=O)C1c2c(n(C)c3ccccc23)SCC(=O)N1Cc1ccc(C)cc1 (stereo not given) | 10 | 1.39 | 7.67 | 1.91 | 9.35
56 | O=C1CCC(=O)N(O)CCCCCNC(=O)CCC(=O)N(O)CCOCCNC(=O)CCC(=O)N(O)CCCCCN1 | 8.03 | 4.39 | -0.106 | -7.38 | 5.45
57 | COC(=O)c1cc2n(n1)CC(C)(C(=O)NC1CCCCC1)N(c1cccc(F)c1)C2=O (stereo not given) | 5.38 | 0 | 9.54 | 6.46 | 5.96
58 | CCOc1ccccc1CN1C(=O)c2cc(-c3ccccc3)nn2CC1(C)C(=O)NCc1ccccc1 (stereo not given) | 5.25 | 0 | 1.16 | 1.29 | -2.31
59 | C=C(C)n1c(=O)n(Cc2ccc(C)cc2)c2ccccc21 | -0.159 | 0.334 | 6.32 | -8.49 | 2.25
60 | COc1ccc(NC(=O)CSc2nnc3n(Cc4ccccc4)c(=O)c4ccccc4n23)cc1 | -5.28 | 1.69 | 4.24 | -6.42 | -2.23
